Results on 28 molecules are retold here after US20070254863A1 (priority 2006, published 2007).

This assay has as its target human cannabinoid CB1 receptor (Homo sapiens, UniProt P21554). Kind of assay: biochemical. In kind it is binding.
Setting [1] is: cloned human CB1 receptor expressed in CHO cells, read-out: Affinity to CB1 (converted).

Where two headings read alike, the source gives them in different places.

Sequence of UniProt P21554 (P21554 whole entry): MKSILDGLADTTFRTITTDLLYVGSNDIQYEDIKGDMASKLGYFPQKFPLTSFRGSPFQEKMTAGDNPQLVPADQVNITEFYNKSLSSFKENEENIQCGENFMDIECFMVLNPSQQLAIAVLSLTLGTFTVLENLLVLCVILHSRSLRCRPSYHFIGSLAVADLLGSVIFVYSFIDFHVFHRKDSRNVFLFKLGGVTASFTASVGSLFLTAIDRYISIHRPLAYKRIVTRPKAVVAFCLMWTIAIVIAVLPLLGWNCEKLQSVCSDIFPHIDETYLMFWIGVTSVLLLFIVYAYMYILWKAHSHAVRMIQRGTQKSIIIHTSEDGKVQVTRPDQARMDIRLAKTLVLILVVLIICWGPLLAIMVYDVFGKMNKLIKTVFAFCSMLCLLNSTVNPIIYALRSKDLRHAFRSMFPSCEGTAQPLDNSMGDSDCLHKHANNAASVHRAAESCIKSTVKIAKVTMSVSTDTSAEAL

`CN1CCC(CNC(=NS(=O)(=O)c2ccc(Cl)cc2)N2CC(c3ccccc3)C(c3ccc(Cl)cc3)=N2)C1` (stereo not shown) [4-Chloro-N-{[3-(4-chloro-phenyl)-4-phenyl-4,5-dihydro-pyrazol-1-yl]-[(1-methyl-pyrrolidin-3-ylmethyl)-amino]-methylene]-benzenesulfonamide]: the Ki under setting [1] was 1 nM.
Turning to `O=S(=O)(N=C(NCc1cccnc1)N1CC(c2ccccc2)C(c2ccc(Cl)cc2)=N1)c1ccc(Cl)cc1` (stereo not shown) [4-Chloro-N-{[3-(4-chloro-phenyl)-4-phenyl-4,5-dihydro-pyrazol-1-yl]-[(pyridin-3-ylmethyl)-amino]-methylene}-benzenesulfonamide], the Ki under setting [1] is 398 nM.
In the case of `N#Cc1cc(-c2ccc(Br)cc2)n(-c2ccc(Cl)cc2Cl)n1` [5-(4-Bromo-phenyl)-1-(2,4-dichloro-phenyl)-1H-pyrazole-3-carbonitrile], the Ki under setting [1] is 501 nM.
Same read-out and setting: with `Cc1c(C=C(c2cc(F)cc(F)c2)S(C)(=O)=O)nn(-c2ccc(Cl)cc2Cl)c1-c1ccc(Br)cc1` [5-(4-Bromo-phenyl)-1-(2,4-dichloro-phenyl)-3-(2-(3,5-difluoro-phenyl)-2-methanesulfonyl-vinyl]-4-methyl-1H-pyrazole] the figure was 50.1 nM; with `O=C(NN1CCCCC1)C1=NN(c2ccc(Cl)cc2Cl)C(c2ccc(Cl)cc2)C1` (stereo not shown) [5-(4-Chloro-phenyl)-1-(2,4-dichloro-phenyl)-4,5-dihydro-1H-pyrazole-3-carboxylic acid piperidine-1-ylamide], 39.8 nM.
Still for that read-out and setting: with `O=C(NN1CCCCC1)c1nc(-c2ccc(Cl)cc2Cl)c(-c2ccc(Cl)cc2)s1` [5-(4-Chloro-phenyl)-4-(2,4-dichloro-phenyl)-thiazole-2-carboxylic acid piperidin-1-ylamide] the figure was 200 nM; with `Cn1c(C(=O)NN2CCCCC2)nc(-c2cc(Cl)ccc2Cl)c1-c1ccc(Cl)cc1` [5-(4-Chloro-phenyl)-4-(2,5-dichloro-phenyl)-1-methyl 1H-imidazole-2-carboxylic acid piperidin-1-ylamide], 200 nM.
As to `CN1CCCCC1Cn1cc(C(=O)c2cc([N+](=O)[O-])ccc2I)c2ccccc21` (stereo not shown) [AM-1241, (2-Iodo-5-nitro-phenyl)-[1-(1-methyl-piperidin-2-ylmethyl)-1H-indol-3-yl]-methanone, reference compound], where the note is “Affinity to CB1”, the Ki was 251 nM.
With `CN/C(=N\S(=O)(=O)N1CCCCCC1)N1CC(c2ccccc2)C(c2ccc(Cl)cc2)=N1` (stereo not shown) [Azepane-1-sulfonic acid [3-(4-chloro-phenyl)-4-phenyl-4,5-dihydro-pyrazol-1-yl]-methylamino-methyleneamide], the Ki under setting [1] was 50.1 nM.
Turning to `CCCCCCC(C)(C)c1cc(O)c2c(c1)OC(C)(C)[C@@H]1CC=C(CO)CC21` (stereo partly shown) [HU-210, 3-(1,1-Dimethyl-heptyl)-9-hydroxymethyl-6,6-dimethyl-6a,7,10,10a-tetra hydro-6H-enzo[c]chromen-1-ol, reference compound], the Ki (Affinity to CB1) was 50.1 nM.
Take `CNC(=NS(=O)(=O)N1CCOCC1)C1=NN(c2ccc(Cl)cc2Cl)C(c2ccccc2)C1` (stereo not shown) [Morpholine-4-sulfonic acid [1-(2,4-dichloro-phenyl)-5-phenyl-4,5-dihydro-1H-pyrazol-3-yl]-methylamino-methyleneamide]: under setting [1], the Ki was 126 nM.
The same measure, in the same setting: as for `CCN(CC)S(=O)(=O)N=C(NC)N1CC(O)(c2ccccc2)C(c2ccc(Cl)cc2)=N1` (stereo not shown) [N,N-Diethylamino-1-sulfonic acid [3-(4-chloro-phenyl)-4-hydroxy-4-phenyl-4,5-dihydro-pyrazol-1-yl]-methylamino-methyleneamide], the figure is 39.8 nM; as for `CCN(CC)S(=O)(=O)N=C(SC)N1CC(c2ccccc2)C(c2ccc(Cl)cc2)=N1` (stereo not shown) [N,N-Diethylamino-1-sulfonic acid [3-(4-chloro-phenyl)-4-phenyl-4,5-dihydro-pyrazol-1-yl]-methylsulfanyl-methyleneamide], 79.4 nM; as for `CN(C)S(=O)(=O)N=C(NCCF)N1CC(c2ccccc2)C(c2ccc(Cl)cc2)=N1` (stereo not shown) [N,N-Dimethylamino-1-sulfonic acid [3-(4-chloro-phenyl)-4-phenyl-4,5-dihydro-pyrazol-1-yl]-(2-fluoro-ethylamino)-methyleneamide], 31.6 nM.
In the case of `CN/C(=N\S(=O)(=O)c1ccc(C(F)(F)F)cc1)N1CC(c2cccnc2)C(c2ccc(Cl)cc2)=N1` (stereo not shown) [N-([3-(4-Chloro-phenyl)-4-pyridin-3-yl-4,5-dihydro-pyrazol-1-yl]-methylamino-methylene}-4-trifluoromethyl-benzenesulfonamide], the Ki under setting [1] was 6.31 nM.
The same measure, in the same setting: with `Cc1c(NC(=O)c2ccccc2)nc(-c2ccc(Cl)cc2Cl)n1-c1ccc(Cl)cc1` [N-[1-(4-Chloro-phenyl)-2-(2,4-dichloro-phenyl)-5-methyl-1H-imidazol-4-yl]-benzamide] the figure was 100 nM.
`NC(=NS(=O)(=O)c1ccc(Cl)cc1)N1CC(c2ccccc2)C(c2ccc(Cl)cc2)=N1` (stereo not shown) [N-{Amino-[3-(4-chloro-phenyl)-4-phenyl-4,5-dihydro-pyrazol-1-yl]-methylene}-4-chloro-benzenesulfonamide]: the Ki under setting [1] was 39.8 nM.
Take `CN/C(=N\S(=O)(=O)N(C)C)N1CC(c2cccc(F)c2)C(c2ccc(Cl)cc2)=N1` (stereo not shown) [N-{[3-(4-Chloro-phenyl)-4-(3-fluoro-phenyl)-4,5-dihydro-pyrazol-1-yl]-methylamino-methylene}-N,N-dimethyl-sulfonamide]: the Ki under setting [1] was 3.16 nM.
Still for that read-out and setting: with `CNC(=NS(=O)(=O)c1ccc(C(F)(F)F)cc1)N1CC(c2ccccc2)C(c2ccc(Cl)cc2)=N1` (stereo not shown) [N-{[3-(4-Chloro-phenyl)-4-phenyl-4,5-dihydro-pyrazol-1-yl]-methylamino-methylene}-4-trifluoromethyl-benzene-sulfonamide] the figure was 3.98 nM.
`CCCCC/C=C\C/C=C\C/C=C\C/C=C\CCCCOC(CO)CO` [Noladineether, reference compound] showed a Ki (Affinity to CB1) of 126 nM.
For the molecule `Cc1c(NC(=O)N2CCCCC2)nn(-c2ccc(Cl)cc2Cl)c1-c1ccc(Cl)cc1` [Piperidine-1-carboxylic acid [5-(4-chloro-phenyl)-1-(2,4-dichloro-phenyl)-4-methyl-1H-pyrazol-3-yl]-amide], the Ki under setting [1] is 126 nM.
On the same count and under the same terms, as for `CNC(=NS(=O)(=O)N1CCCCC1)C1=NN(c2ccc(Cl)cc2)C(c2ccccc2)C1` (stereo not shown) [Piperidine-1-sulfonic acid [1-(4-chloro-phenyl)-5-phenyl-4,5-dihydro-1H-pyrazol-3-yl]-methylamino-methyleneamide], the figure is 50.1 nM.
On the same count and under the same terms, as for `CNC(=NS(=O)(=O)N1CCCCC1)N1CC(c2cccc(F)c2)C(c2ccc(Cl)cc2)=N1` (stereo not shown) [Piperidine-1-sulfonic acid [3-(4-chloro-phenyl)-4-(3-fluoro-phenyl)-4,5-dihydro-pyrazol-1-yl]-methylamino-methyleneamide], the figure is 31.6 nM.
Still for that read-out and setting: as for `CN(C)CCNC(=NS(=O)(=O)N1CCCCC1)N1CC(c2ccccc2)C(c2ccc(Cl)cc2)=N1` (stereo not shown) [Piperidine-1-sulfonic acid [3-(4-chloro-phenyl)-4-phenyl-4,5-dihydro-pyrazol-1-yl]-(2-dimethylamino-ethylamino)-methyleneamide], the figure is 2.51 nM.
In the case of `CNC(=NS(=O)(=O)N1CCCCC1)N1C[C@H](c2ccccc2)C(c2ccc(Cl)cc2)=N1` [Piperidine-1-sulfonic acid [3-(4-chloro-phenyl)-4-phenyl-4,5-dihydro-pyrazol-1-yl]-methylamino-methyleneamide], the Ki (Affinity to CB1) was 7.94 nM.
As for `CCc1c(C(=O)NN2CCCCC2)nn(-c2ccc(Cl)cc2Cl)c1-c1ccc(Br)cc1` [SR-147778, 5-(4-Bromo-phenyl)-1-(2,4-dichloro-phenyl)-4-ethyl-1H-pyrazole-3-carboxylic acid piperidin-1-ylamide, reference compound], the Ki under setting [1] is 12.6 nM.
On the same count and under the same terms, as for `O=S(=O)(N=C(NCCF)N1CC(c2ccccc2)C(c2ccc(Cl)cc2)=N1)c1ccc(Cl)cc1` (stereo not shown) [drawing 45, 4-Chloro-N-[[3-(4-chloro-phenyl)-4-phenyl-4,5-dihydro-pyrazol-1-yl]-(2-fluoro-ethylamino)-methylene]-benzenesulfonamide], the figure is 20 nM.
Same read-out and setting: as for `O=S(=O)(N=C(NCCF)N1CC(c2ccccc2)C(c2ccc(Cl)cc2)=N1)c1ccc(Cl)cc1` (stereo not shown) [drawing 46], the figure is 126 nM.
